The list shows a part of the results. These are noisy estimates, calculated here from bound and input reads.
Biological target: T1, Pho4 (S. cerevisiae) (UniProt P07270)
T1 sequence: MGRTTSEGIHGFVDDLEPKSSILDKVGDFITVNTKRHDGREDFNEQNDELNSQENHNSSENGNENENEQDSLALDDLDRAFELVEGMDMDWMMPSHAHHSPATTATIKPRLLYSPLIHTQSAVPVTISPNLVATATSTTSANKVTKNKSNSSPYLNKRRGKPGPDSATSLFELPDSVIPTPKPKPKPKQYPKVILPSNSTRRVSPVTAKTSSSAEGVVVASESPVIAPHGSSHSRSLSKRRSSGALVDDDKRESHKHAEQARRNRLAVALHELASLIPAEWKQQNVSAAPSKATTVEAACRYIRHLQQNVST
Assay: relative binding free energy (BET-seq); higher = weaker binding
Settings: reference: library average

Sequence	relative binding free energy
ATGCGCACGTGTGTTG	-0.19 kcal/mol
TAAGTCACGTGCAGTA	0.07 kcal/mol
TTGAGCACGTGGCTGT	-0.16 kcal/mol
AGTCGCACGTGGGTAA	-0.26 kcal/mol
AAGTGCACGTGCTTTT	-0.09 kcal/mol
AGGAACACGTGGTTGG	-0.01 kcal/mol
TGATACACGTGGAATT	0.24 kcal/mol
TACAGCACGTGGATGT	0.02 kcal/mol
TATGCCACGTGGAGTT	-0.1 kcal/mol
GTATACACGTGAGTCG	0.37 kcal/mol
CGTGGCACGTGGCACG	-0.14 kcal/mol
GGCGCCACGTGGGTTT	-0.16 kcal/mol
TGGTGCACGTGGTTAA	-0.1 kcal/mol
GGTCTCACGTGGGGAT	0.14 kcal/mol
AAGATCACGTGGTTAG	0.16 kcal/mol
TGTACCACGTGGTGTG	-0.16 kcal/mol
ATCGCCACGTGTGTGT	-0.03 kcal/mol
GGTGTCACGTGTAATT	0.2 kcal/mol
TAGTACACGTGTATGA	0.05 kcal/mol
CGTTACACGTGCTGGG	0.05 kcal/mol
GGAGTCACGTGATTTT	0.27 kcal/mol
TTAGACACGTGTGTGG	0.13 kcal/mol
TGGTGCACGTGGGCGT	-0.17 kcal/mol
AATAGCACGTGGCTGT	-0.16 kcal/mol
TTTAACACGTGATTGG	0.18 kcal/mol

Sequence	relative binding free energy
TCGGGCACGTGGTACT	-0.16 kcal/mol
GGTCGCACGTGGTCTT	-0.04 kcal/mol
GTAATCACGTGTAAGT	0.08 kcal/mol
GTAGACACGTGAGTGG	0.2 kcal/mol
GGTGGCACGTGGAGAG	0.07 kcal/mol
ACTGGCACGTGCTGGG	-0.07 kcal/mol
ATATTCACGTGGCTGG	0.07 kcal/mol
TGGGTCACGTGTCGTG	0.15 kcal/mol
TGTAACACGTGGTGTT	-0.07 kcal/mol
GTCAACACGTGGGTTT	0.02 kcal/mol
TGGCACACGTGGGTGT	-0.17 kcal/mol
ATTATCACGTGTTTGG	0.15 kcal/mol
TTTAGCACGTGGTCTT	-0.07 kcal/mol
TTGTGCACGTGAAACG	0.13 kcal/mol
TGACGCACGTGGCAGG	-0.17 kcal/mol
GTATACACGTGGTGGG	0.03 kcal/mol
TGGGTCACGTGGGCAA	0.03 kcal/mol
GTATGCACGTGTCAGT	0.08 kcal/mol
GTGAGCACGTGACATG	0.15 kcal/mol
TTTGGCACGTGTCTTT	0 kcal/mol
AAATGCACGTGGGGTT	-0.19 kcal/mol
GGTAGCACGTGTGGGA	-0.02 kcal/mol
TGGCGCACGTGTCGTT	-0.08 kcal/mol
AAATGCACGTGAGGCG	0.2 kcal/mol
GGTAGCACGTGGGACA	-0.17 kcal/mol

Sequence	relative binding free energy
TTTAGCACGTGTTGTA	0 kcal/mol
GTTTGCACGTGTGCAG	0.17 kcal/mol
TGCAACACGTGTTGTG	-0.11 kcal/mol
TAATGCACGTGAGGCG	0.08 kcal/mol
TGTGCCACGTGATTTA	0.02 kcal/mol
AGATACACGTGTGGTT	0.14 kcal/mol
GGTTGCACGTGGGTGA	-0.02 kcal/mol
TCTTTCACGTGGGTTA	0.27 kcal/mol
GGGTTCACGTGATCGT	0.44 kcal/mol
TGTCTCACGTGAGGGA	0.37 kcal/mol
TTTGACACGTGTAACG	0.17 kcal/mol
GGTGGCACGTGCGGTG	-0.07 kcal/mol
CAGGGCACGTGTAGTA	-0.13 kcal/mol
GAGCACACGTGTGGTG	0.14 kcal/mol
TTCTACACGTGATGGA	0.24 kcal/mol
CGGTGCACGTGTAGGC	0.14 kcal/mol
AATTACACGTGCGTGT	0.06 kcal/mol
TTCAGCACGTGTGCGT	-0.08 kcal/mol
GGCGTCACGTGAGGGC	0.15 kcal/mol
GGGAACACGTGGCGGA	-0.15 kcal/mol
GAGGGCACGTGCGTGT	-0.15 kcal/mol
CGGGGCACGTGAATGA	0.18 kcal/mol
GAATGCACGTGTGCGG	0.27 kcal/mol
ATTGGCACGTGAGTGC	0.15 kcal/mol
GGCCGCACGTGTTAGG	0.03 kcal/mol

Sequence	relative binding free energy
CTGTTCACGTGTGCGA	0.39 kcal/mol
TAGCTCACGTGGAGTG	0.14 kcal/mol
ATATGCACGTGAGTTT	0.15 kcal/mol
GTTATCACGTGCAGTT	0.2 kcal/mol
ATGTACACGTGAGGAA	0.17 kcal/mol
GAGGGCACGTGGATGC	0.01 kcal/mol
AAGGTCACGTGTAAGA	0.39 kcal/mol
ATGGTCACGTGGGTTC	0.1 kcal/mol
GTGCACACGTGTGGAG	0.13 kcal/mol
AATATCACGTGCGTGT	0.07 kcal/mol
ATGATCACGTGAGAGT	0.23 kcal/mol
TGATCCACGTGAAGTT	0.3 kcal/mol
CCTTGCACGTGTTTGT	-0.08 kcal/mol
GTGTGCACGTGAGCTG	0.2 kcal/mol
ATTATCACGTGCTTGA	0.08 kcal/mol
AGCGTCACGTGTGGGT	0.07 kcal/mol
GGTATCACGTGTAAGG	0.28 kcal/mol
TGTATCACGTGCTAGT	0.1 kcal/mol
TTGGTCACGTGCGAGG	0.18 kcal/mol
AAAGTCACGTGATCGT	0.17 kcal/mol
TGACTCACGTGGGATG	0.22 kcal/mol
TTTGTCACGTGGTGCA	-0.01 kcal/mol
ATATCCACGTGGTGTA	-0.01 kcal/mol
TCGGGCACGTGGGAAA	-0.03 kcal/mol
GGTCTCACGTGTGGGG	0.27 kcal/mol

Sequence	relative binding free energy
GGCGGCACGTGTGAAT	0.12 kcal/mol
CGTGGCACGTGAGAGA	0.15 kcal/mol
TTTTTCACGTGCTGTT	0.36 kcal/mol
GTTGGCACGTGGCGGA	-0.01 kcal/mol
TTATACACGTGTGATC	0.2 kcal/mol
TGGTTCACGTGGCTGG	0.23 kcal/mol
AGTAACACGTGTAGAT	0.14 kcal/mol
AGTGTCACGTGCCGGG	0.07 kcal/mol
GTCGGCACGTGTGCGG	-0.06 kcal/mol
AGTATCACGTGAAGGG	0.45 kcal/mol
TGGTTCACGTGGTACT	0.08 kcal/mol
GGGAGCACGTGGTGAT	-0.17 kcal/mol
TGAAACACGTGGGGGC	-0.05 kcal/mol
TTACTCACGTGTCTTT	0.26 kcal/mol
CGGGACACGTGTTTAT	0 kcal/mol
TTTCTCACGTGATTGG	0.3 kcal/mol
CTAGGCACGTGCGGTG	-0.24 kcal/mol
GGGGTCACGTGCTGTT	0.12 kcal/mol
TTTGTCACGTGAAAGC	0.27 kcal/mol
GACGTCACGTGGAGTG	0.15 kcal/mol
TATATCACGTGCGGCT	0.22 kcal/mol
GCTTTCACGTGTTGGG	0.28 kcal/mol
TTATTCACGTGTGGTT	0.33 kcal/mol
ATATTCACGTGTTTAA	0.08 kcal/mol
TCTGGCACGTGTTATG	-0.04 kcal/mol

Sequence	relative binding free energy
GTTGTCACGTGAGATG	0.34 kcal/mol
ATGGGCACGTGAATAA	0.2 kcal/mol
TGATTCACGTGTGGAT	0.25 kcal/mol
TGCGTCACGTGTAGTA	0.11 kcal/mol
CGCTGCACGTGAGTGT	0.12 kcal/mol
GGGGTCACGTGAAAAG	0.48 kcal/mol
TGAGTCACGTGGCGGA	0.04 kcal/mol
GATATCACGTGTTGTT	0.25 kcal/mol
TGATTCACGTGCTATG	0.19 kcal/mol
AATATCACGTGCATGG	0.12 kcal/mol
TTTGTCACGTGGTGTC	0.01 kcal/mol
ACGTGCACGTGTAGGT	-0.16 kcal/mol
GTGTTCACGTGGCCTG	0.18 kcal/mol
CGGAACACGTGGGTGA	-0.06 kcal/mol
CGAGGCACGTGAAGTT	0.29 kcal/mol
AGAGGCACGTGTGCGG	-0.23 kcal/mol
TATTCCACGTGTTGGT	0.19 kcal/mol
ATTTCCACGTGGTTTT	0.12 kcal/mol
GGAAGCACGTGGTCTG	-0.27 kcal/mol
TATGGCACGTGAGTGC	0.13 kcal/mol
TGTATCACGTGAATTG	0.37 kcal/mol

From the BET-seq Pho4 binding data (Le et al. 2018)
